Data published in ChEMBL document CHEMBL4888484, “Replenishing the malaria drug discovery pipeline: Screening and hit evaluation of the MMV Hit Generation Library 1 (HGL1) against asexual blood stage Plasmodium falciparum ,using a nano luciferase reporter read-out” (2022).
Among all 150,000 compounds or so, about 540 (0.36%) showed an effect of 50% or more. Some of the results follow.

tested on: Plasmodium falciparum; assay: Primary screen in NF54 nanoGlo assay, in single point, at 2uM, 72h; a lower Z score goes with more inhibition; assay type: functional, Erythrocyte; conditions: timepoint 72 hour

SMILES | % Inhibition [%] | Z score
Cc1ccc(CN(Cc2ccc(F)cc2)C(=O)CN(C2CCCCC2)S(=O)(=O)c2ccccc2)s1 | -14 | 1.45
O=C1NC(=O)[C@H](CC(=O)N2CCC3(CCC(=O)N(Cc4ccccc4)C3)CC2)N1 | -10 | 1.48
O=C(c1cnc2ccccc2n1)N1CCCN(C[C@H]2CCCO2)CC1 | 1 | -0.16
Cc1onc(C2CCCCC2)c1C(=O)O | -5 | 0.83
c1csc(-c2ccn(Cc3nc(C4CC4)no3)n2)c1 | -6 | 0.63
CC(C)c1cnc(NC(=O)c2ccc(N3CCCC3)nc2)s1 | -15 | 2.31
O=C(CC1CCCCC1)NCc1cc(-c2cccs2)on1 | -6 | 0.83
Cn1cc(-c2ccccc2CNC(=O)C2CN3CCCN2CC3)cn1 (stereo not given) | -29 | 3.43
Cc1cccc2c(N3CCC(N4CCCOCC4)CC3)ncnc12 | -6 | 0.84
Cc1oc2ncn(C)c(=O)c2c1C(=O)N1CC(C)CC(C)C1 (stereo not given) | -11 | 1.84
O=C1NCCN1C(=O)N[C@H]1CCn2nccc2C1 | -9 | 1.47
O=C(CN1CC[C@H](Cc2ccncc2)C1)N1CCCc2ccccc21 | 0 | -0.05
Cc1ccc(S(=O)(=O)/N=C(/CN2CCOCC2)N2CCCN(S(=O)(=O)c3ccc(C)cc3)C2)cc1 | -11 | 1.38
O=C(c1ccccc1F)N1CCC(N2C(=O)N(Cc3cccnc3)C[C@]23CCOC3)CC1 | -14 | 1.93
Cc1ccc(C)c(OCc2cc(=O)n3ccc(C)cc3n2)c1 | 7 | -0.8
COc1cc(OC)nc(NC[C@H]2CN(C)CCO2)n1 | -3 | 0.39
CC1CN(c2ccc(NC(=O)N(C)CC3CC3)cc2)CC(C)O1 (stereo not given) | -14 | 1.76
CC(C)c1nc(Cn2cnc(-c3ccncc3)c2)no1 | 19 | -2.5
COc1cc(NCCc2scnc2C)ncn1 | 13 | -1.79
Cc1cc(S(=O)(=O)N(C)[C@H]2CCS(=O)(=O)C2)sc1Cl | -5 | 0.57
CCOCCCCNC(=NC)N1CCCCC1 | -6 | 0.68
c1ncc(-c2ccc(-c3noc([C@@H]4CCCN4C4CCOCC4)n3)cn2)cn1 | 16 | -1.81

SMILES | % Inhibition [%] | Z score
NC(=O)C1(NC(=O)c2n[nH]c(=O)c3ccccc23)CCCC1 | -11 | 2.01
O=C1NCCCc2[nH]c(-c3ccc(-n4cccn4)cc3)nc21 | -24 | 2.74
Cc1ccccc1CNC(=O)CN1C(=O)CCCc2cc(S(=O)(=O)N3CCCCC3)ccc21 | -13 | 1.63
Cc1c(S(=O)(=O)N2CCN(C(=O)c3ccc(F)cc3)CC2)cnn1C(F)F | 37 | -5.31
CC1CC(NC(=O)c2cccc3nccn23)C(=O)N1c1ccccc1 (stereo not given) | -4 | 0.41
CC(=O)Nc1ccc(C)cc1S(=O)(=O)N1CCc2c(c(-c3nc(-c4ccccc4)no3)nn2C)C1 | -14 | 1.61
Cc1ccc(CNc2nc(-c3cccs3)n[nH]2)cc1 | -33 | 3.88
Cc1[nH]nc(C(=O)NC2(C(F)F)CC2)c1C | 8 | -1.17
O=C(CN(Cc1ccccc1)C(=O)c1ccccc1)Nc1ccc(N2CCN(C(=O)c3ccccc3F)CC2)cc1 | -1 | 0.23
N[C@@H](CC(F)(F)F)c1ccc(Br)cc1 | -12 | 1.32
Cn1c(N2CCc3ccccc32)c(C#N)c(=O)n(C)c1=O | -6 | 0.75
CCN1C(=O)C[C@H](C(=O)NCCc2csc(C)n2)[C@H]1c1nccn1CC | -8 | 1.17
COCc1nc(N[C@H]2CCCN(Cc3ccccc3)C2)c2cnn(C)c2n1 | -4 | 0.54
COc1cc(OC)c(CN2C[C@H]3CN(C)C[C@H]3C2)cc1Cl | 0 | 0.07
O=C1C2CCCN2C(=O)N1CC(O)COCc1ccccc1 (stereo not given) | -11 | 1.6
CN1C[C@@H](NS(=O)(=O)c2cccnc2)Cc2ccccc21 | 18 | -2.31
COc1ccc(Cn2nc(C)cc2NC(=O)N2CCCNCC2)cc1OC | -5 | 0.77
CCN(Cc1cnn(C)c1)C[C@H]1CN(c2ccccc2)C(=O)O1 | -12 | 1.5
O=S1(=O)NC[C@H](O)CN(Cc2cc3ccccc3o2)C[C@]2(COc3ccccc31)C[C@@H](O)[C@@H](O)C2 | -5 | 0.68
c1cc2nnnn2nc1N1CCC(c2nnc3n2CCC3)CC1 | -11 | 2.1
Cc1ccc(NCc2cnc(C)nc2C)c(OC[C@H]2CCCO2)c1 | -2 | 0.41
CCCc1cc(C(=O)N(Cc2cccnc2)C2CCN(C)CC2)cs1 | -8 | 1.03

SMILES | % Inhibition [%] | Z score
CC(C)NC(=O)CN(C)S(=O)(=O)c1ccccc1 | -4 | 0.62
CO[C@@](C)(CNC(=O)NCc1cccs1)c1ccccc1F | 17 | -2.2
CC1CC(C)CN(C(=O)Nc2cccc3cccnc23)C1 (stereo not given) | -7 | 1.36
Cc1ccc(CN2CCN(Cc3nc(-c4ccc(Cl)cc4)no3)C[C@@H]2CCO)o1 | -5 | 0.92
O=C(c1cc2ccccc2[nH]1)N1C[C@H]2C[C@H](C1)[C@@H]1CCCC(=O)N1C2 | -4 | 0.83
Cc1c(-c2ccccc2)nc2c(c1N)c(-c1ccccc1)c(-c1ccccc1)n2Cc1ccccc1 | 4 | -0.41
Cc1cnc(CCNC(=O)C(F)(F)C2(O)CCCC2)s1 | -22 | 2.25
COC[C@@H]1CCCN1C(=O)CN1CCCCCC1 | -4 | 0.82
C/C(=C\c1ccccc1)CN1CCC(C(=O)N(C)Cc2ccccc2)CC1 | 28 | -3.12
CC1CN(c2ccc(C(F)(F)F)cc2)CC(C)N1C(=O)[C@@H]1CC[C@H](C(N)=O)O1 (stereo not given in full) | -3 | 0.52
COCc1nc(CNc2cc(C)nc(Nc3cccc(O)c3)n2)no1 | 14 | -1.99
COc1ccc([C@H](C)NC(=O)N(C)CC(C)O)c(Br)c1 (stereo not given in full) | 15 | -1.94
C[C@H]1Cc2cc(Br)cc3c(=O)c(C(=O)Nc4cccc5ccccc45)cn1c23 | -9 | 1.1
Cc1ccc(O)c(C(=O)O[C@@H](C)C(=O)Nc2cc(C)no2)c1 | -25 | 2.25
COc1cc2c(cc1OC)[C@H](C)N(C(=O)CCc1nc(CS(=O)(=O)c3ccccc3)no1)CC2 | 0 | -0.01
Cc1ccncc1S(=O)(=O)N(C)c1ccc(N2CCOCC2)nc1 | -7 | 0.82
COc1ccc(C)c2sc(N(Cc3cccnc3)C(=O)c3ccn(C)n3)nc12 | -12 | 2
CC[C@@](C)(CNC(=O)CC(C)(C)C)N1CCOCC1 | -10 | 1.26
C#CCN(C)C[C@@H]1C=C(C)[C@H](Cc2nnc(-c3ccccc3)o2)C[C@H]1C(C)C | 10 | -1.16
COC[C@H](C)NS(=O)(=O)c1ccc(C)cc1Cl | -2 | 0.3
O=C(CC1CCCC1)N1CC(CN2C(=O)CCC2=O)C1 | -7 | 1.34
CCc1noc2ncnc(NCCC3=CCCCC3)c12 | -18 | 2.1

SMILES | % Inhibition [%] | Z score
COC1CC(NC(=O)C2(OC)CCOCC2)C1(C)C (stereo not given) | -21 | 4.13
CCN(Cc1cc2ccc(C)cc2[nH]c1=O)C(=O)C1CCCCC1 | 28 | -3.16
COc1ccccc1N1CC[C@H](C)N(Cc2ncc(-c3ccccc3)o2)CC1 | -19 | 2.01
CCCn1ccnc1CN1CCCn2nc(CNC(=O)N(C)C)cc2C1 | -12 | 1.2
N#Cc1cc(Cl)c(C(=O)O)c(Cl)c1 | -14 | 1.78
CN(Cc1ccco1)S(=O)(=O)c1ccc(-c2ccc(=O)[nH]n2)o1 | -3 | 0.64
C=CCNC(=O)c1cccc(S(=O)(=O)N[C@@H](C)CN(CC)CC)c1 | -4 | 0.33
CCCc1noc(CNc2cc(F)ccc2OCC2CC2)n1 | -7 | 0.97
O=C(Nc1ccn(CC(F)F)n1)c1cscn1 | -11 | 2.18
CCOC(=O)N1CCN(Cc2cc(O)c3cccc(Cl)c3n2)CC1 | -12 | 1.18
COC(=O)[C@@H]1C[C@@H](O)CN1CC(=O)Nc1ccc(C)cc1Cl | -3 | 0.21
Cn1c(=O)c2c(n(C)c1=O)n(CC(=O)NC(C)(C)C)c(=O)n2C | -12 | 1.41
CC(=O)Nc1cccnc1NC(=O)[C@@H]1CC[C@H](CN2CCOCC2)O1 | -10 | 1.85
CC1=CCCC(C)C1CNCc1cccc(CS(C)(=O)=O)c1 (stereo not given) | 2 | -0.22
Cc1ccc(CN2CCC3(CC2)c2nc[nH]c2CCN3C(=O)C2CCC2)cc1C | -14 | 1.47
CCC(N)C(=O)NC(C)c1ccc(Cl)s1 (stereo not given) | -12 | 1.66
Cc1cc(CS(=O)(=O)N2CCN(Cc3ccccn3)CC2)no1 | -6 | 0.72
CC(c1ncc(Br)cn1)N1CCC(NS(C)(=O)=O)C1 (stereo not given) | -11 | 1.59
Cc1cc(C)cc(NC(=O)Nc2nnc3ccccn23)c1 | -6 | 0.68
